We go through 31 compounds from the antibiotic and cytotoxicity screens of Wong et al. (2023).

Some of the results follow.

The test relates to S. aureus RN4220. Description: growth inhibition call (relative growth <= 0.2). The settings on record: 50 µM.
With `C[C@H](CO)N1C[C@H](C)[C@H](CN(C)C(=O)Cc2ccncc2)Oc2cc(-c3cncnc3)ccc2S1(=O)=O`, the growth inhibition call is “inactive”.

Regarding `COc1ccccc1Nc1nc(-c2ccc(Cl)cc2)cs1`, the growth inhibition call is “inactive”.

Turning to `O=C(O)CSC(=S)N1CCOCC1`, the growth inhibition call is “inactive”. For `CCOC(=O)[C@H]1C/C=C/C[C@H](C(=O)OCC)C(=O)O[C@H]2[C@@H](OC)O[C@H](CO)[C@@H](OC(=O)Nc3ccc(OC)cc3)[C@@H]2OC1=O`, the growth inhibition call was “inactive”.

For the compound `CCc1c(C(=O)OC)nnc2cc(C)nn12`, the growth inhibition call is “inactive”. As to `C[C@@H]1CN([C@@H](C)CO)C(=O)c2cc(NC(=O)Nc3ccc4c(c3)OCO4)ccc2O[C@@H](C)CCCCO[C@@H]1CN(C)Cc1ccc(C(=O)O)cc1`, the growth inhibition call is “inactive”. On to `C[C@@H]1CN([C@@H](C)CO)C(=O)c2cc(NS(=O)(=O)c3cccs3)ccc2O[C@@H]1CN(C)S(C)(=O)=O`, for which the growth inhibition call is “inactive”. Consider `CC(=O)n1cc([C@H]2C=C(C(=O)N3CCCCCCC3)O[C@@H](OCc3ccc(CO)cc3)C2)c2ccccc21`, for which the growth inhibition call is “inactive”. To `CC(C)NC(=O)N(C)C[C@@H]1Oc2ccc(NC(=O)C3CCCCC3)cc2C(=O)N([C@H](C)CO)C[C@H]1C` belongs “inactive”. As to `C[C@@H]1CCCCO[C@@H](CN(C)S(=O)(=O)c2ccc(F)cc2)[C@@H](C)CN([C@@H](C)CO)C(=O)c2cc(NS(C)(=O)=O)ccc2O1`, the growth inhibition call was “inactive”. As to `Nc1ccc(S(=O)(=O)Nc2ncccn2)cc1`, the growth inhibition call is “inactive”.

As to `O=C(C[C@@H]1CC[C@H]2[C@@H](COC[C@H](O)CN2S(=O)(=O)c2ccccc2)O1)N[C@H]1CCN(Cc2ccccc2)C1`, the growth inhibition call is “inactive”.

Regarding `C[C@@H]1CCCCO[C@@H](CN(C)Cc2ccc(C(=O)Nc3ccccc3N)cc2)[C@@H](C)CN([C@H](C)CO)C(=O)c2cc(NC(=O)Nc3ccc(F)cc3)ccc2O1`, the growth inhibition call is “inactive”. As for `C[C@@H]1CCCCO[C@H](CN(C)C(=O)Nc2cccc3ccccc23)[C@@H](C)CN([C@H](C)CO)C(=O)c2cc(NS(=O)(=O)c3ccc(Cl)cc3)ccc2O1`, the growth inhibition call is “inactive”. As for `C[C@H](CO)N1C[C@H](C)[C@H](CN(C)S(=O)(=O)c2ccccc2)Oc2ncc(-c3cccc(F)c3)cc2C1=O`, the entry is “inactive”. As for `Cc1ccc(S(=O)(=O)N(C)C[C@@H]2OCCCC[C@H](C)Oc3ccc(NC(=O)CCC(F)(F)F)cc3C(=O)N([C@H](C)CO)C[C@H]2C)cc1`, the entry is “inactive”; as for `C[C@@H]1CN([C@H](C)CO)C(=O)c2cc(C#CC3CC3)cnc2O[C@H]1CN(C)S(=O)(=O)c1cccc(F)c1`, “inactive”. To `C[C@H]1CN([C@@H](C)CO)C(=O)Cc2cc(NC(=O)CCC(F)(F)F)ccc2O[C@@H]1CN(C)S(C)(=O)=O` belongs “inactive”; to `C[C@@H]1CN([C@@H](C)CO)C(=O)c2cc(NC(=O)NC3CCCCC3)ccc2O[C@@H](C)CCCCO[C@H]1CN(C)S(=O)(=O)c1ccccc1`, “inactive”; to `C[C@H](CO)N1C[C@H](C)[C@@H](CN(C)Cc2ccc(Cl)c(Cl)c2)Oc2ccc(NS(=O)(=O)c3ccc(Cl)cc3)cc2C1=O`, “inactive”. Turning to `C[C@H]1CN([C@@H](C)CO)S(=O)(=O)c2ccc(-c3cncnc3)cc2O[C@@H]1CN(C)C(=O)NC1CCCC1`, the growth inhibition call was “inactive”. In the case of `C[C@@H]1CN([C@@H](C)CO)C(=O)Cc2cc(NS(=O)(=O)c3ccc(Cl)cc3)ccc2O[C@H]1CN(C)C`, the growth inhibition call is “inactive”. As to `C[C@@H]1CCCCO[C@@H](CN(C)C(=O)C2CCCCC2)[C@H](C)CN([C@H](C)CO)C(=O)c2cc(NC(=O)NC3CCCCC3)ccc2O1`, the growth inhibition call is “inactive”.

Turning to `CCn1ncc(NC(=O)Cn2ccc(C(=O)OC)n2)n1`, the growth inhibition call was “inactive”.

For `Cc1ccc(S[C@]2(C(=O)NC3CC3)CC(=O)N(C3CCCCC3)[C@@H]2c2ccc(CO)cc2I)cc1`, the growth inhibition call was “inactive”. To `NC(=O)NCC#Cc1ccc2c(c1)[C@]1(C(=O)N2)[C@H](c2ccccc2OCCO)N2[C@H](c3ccccc3)[C@H](c3ccccc3)OC(=O)[C@H]2[C@@H]1C(=O)N1CCCCCCC1` belongs “inactive”; to `Cc1ccc(S(=O)(=O)N(C)C[C@@H]2Oc3c(NC(=O)C4CCOCC4)cccc3C(=O)N([C@H](C)CO)C[C@@H]2C)cc1`, “inactive”; to `NCc1cccc(N2CCCCC2)c1`, “inactive”. To `C[C@H]1CN([C@@H](C)CO)C(=O)c2cc(C#CCN(C)C)cnc2O[C@H]1CN(C)C(=O)CCN1CCCCC1` belongs “inactive”. Consider `COC(=O)c1c2oc(c1C(=O)OC)C(=O)N(C)Cc1cn(nn1)C[C@H](Cc1ccccc1)NC(=O)N[C@H](CO)CC2`, for which the growth inhibition call was “inactive”. As for `Cc1ncc(COP(=O)(O)O)c(C=O)c1O`, the entry is “inactive”.
